Results as given in publication PMC11394131.
Results are given in words; binding and its absence hold for the method and conditions named. Binding seen in cells or lysates may run through a third protein. Some results given as binding are weak or reduced against the parent protein; the word gives no strength.

The chains behind the UniProt entries cited, without tags or fusion partners.
UniProt A2IDD5: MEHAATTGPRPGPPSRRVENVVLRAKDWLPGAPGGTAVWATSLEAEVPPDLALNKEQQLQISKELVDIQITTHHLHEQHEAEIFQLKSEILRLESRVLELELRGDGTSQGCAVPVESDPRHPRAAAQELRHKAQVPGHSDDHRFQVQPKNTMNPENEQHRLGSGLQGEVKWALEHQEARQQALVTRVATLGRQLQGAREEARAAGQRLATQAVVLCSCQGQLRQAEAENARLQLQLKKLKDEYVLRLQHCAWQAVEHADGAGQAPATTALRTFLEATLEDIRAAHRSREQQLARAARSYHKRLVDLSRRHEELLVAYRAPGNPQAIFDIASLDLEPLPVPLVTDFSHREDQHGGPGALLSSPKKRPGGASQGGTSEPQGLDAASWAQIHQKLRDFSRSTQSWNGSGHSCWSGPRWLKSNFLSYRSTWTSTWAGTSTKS
UniProt P35609: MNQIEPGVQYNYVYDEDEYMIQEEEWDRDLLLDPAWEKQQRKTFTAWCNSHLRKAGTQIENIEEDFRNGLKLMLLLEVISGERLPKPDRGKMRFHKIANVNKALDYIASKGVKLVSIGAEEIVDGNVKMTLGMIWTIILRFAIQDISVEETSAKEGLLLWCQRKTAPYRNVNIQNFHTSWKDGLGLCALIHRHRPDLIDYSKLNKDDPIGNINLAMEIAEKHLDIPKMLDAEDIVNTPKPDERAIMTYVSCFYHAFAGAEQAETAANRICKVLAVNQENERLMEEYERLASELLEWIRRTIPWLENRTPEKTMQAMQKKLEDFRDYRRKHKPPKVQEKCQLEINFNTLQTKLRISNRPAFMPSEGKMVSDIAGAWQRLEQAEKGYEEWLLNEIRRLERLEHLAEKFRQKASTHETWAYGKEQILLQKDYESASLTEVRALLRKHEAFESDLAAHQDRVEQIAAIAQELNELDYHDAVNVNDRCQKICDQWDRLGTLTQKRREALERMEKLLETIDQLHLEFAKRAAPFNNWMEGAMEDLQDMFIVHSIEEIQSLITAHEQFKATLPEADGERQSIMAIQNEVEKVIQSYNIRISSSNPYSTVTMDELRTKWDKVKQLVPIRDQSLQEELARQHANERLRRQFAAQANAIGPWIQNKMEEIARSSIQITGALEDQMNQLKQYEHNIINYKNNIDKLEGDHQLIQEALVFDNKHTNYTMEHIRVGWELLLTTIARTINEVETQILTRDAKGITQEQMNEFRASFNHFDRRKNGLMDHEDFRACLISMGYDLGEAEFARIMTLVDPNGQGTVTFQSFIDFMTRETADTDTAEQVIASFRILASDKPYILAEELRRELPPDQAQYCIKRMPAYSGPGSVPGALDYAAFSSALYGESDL
UniProt P21817: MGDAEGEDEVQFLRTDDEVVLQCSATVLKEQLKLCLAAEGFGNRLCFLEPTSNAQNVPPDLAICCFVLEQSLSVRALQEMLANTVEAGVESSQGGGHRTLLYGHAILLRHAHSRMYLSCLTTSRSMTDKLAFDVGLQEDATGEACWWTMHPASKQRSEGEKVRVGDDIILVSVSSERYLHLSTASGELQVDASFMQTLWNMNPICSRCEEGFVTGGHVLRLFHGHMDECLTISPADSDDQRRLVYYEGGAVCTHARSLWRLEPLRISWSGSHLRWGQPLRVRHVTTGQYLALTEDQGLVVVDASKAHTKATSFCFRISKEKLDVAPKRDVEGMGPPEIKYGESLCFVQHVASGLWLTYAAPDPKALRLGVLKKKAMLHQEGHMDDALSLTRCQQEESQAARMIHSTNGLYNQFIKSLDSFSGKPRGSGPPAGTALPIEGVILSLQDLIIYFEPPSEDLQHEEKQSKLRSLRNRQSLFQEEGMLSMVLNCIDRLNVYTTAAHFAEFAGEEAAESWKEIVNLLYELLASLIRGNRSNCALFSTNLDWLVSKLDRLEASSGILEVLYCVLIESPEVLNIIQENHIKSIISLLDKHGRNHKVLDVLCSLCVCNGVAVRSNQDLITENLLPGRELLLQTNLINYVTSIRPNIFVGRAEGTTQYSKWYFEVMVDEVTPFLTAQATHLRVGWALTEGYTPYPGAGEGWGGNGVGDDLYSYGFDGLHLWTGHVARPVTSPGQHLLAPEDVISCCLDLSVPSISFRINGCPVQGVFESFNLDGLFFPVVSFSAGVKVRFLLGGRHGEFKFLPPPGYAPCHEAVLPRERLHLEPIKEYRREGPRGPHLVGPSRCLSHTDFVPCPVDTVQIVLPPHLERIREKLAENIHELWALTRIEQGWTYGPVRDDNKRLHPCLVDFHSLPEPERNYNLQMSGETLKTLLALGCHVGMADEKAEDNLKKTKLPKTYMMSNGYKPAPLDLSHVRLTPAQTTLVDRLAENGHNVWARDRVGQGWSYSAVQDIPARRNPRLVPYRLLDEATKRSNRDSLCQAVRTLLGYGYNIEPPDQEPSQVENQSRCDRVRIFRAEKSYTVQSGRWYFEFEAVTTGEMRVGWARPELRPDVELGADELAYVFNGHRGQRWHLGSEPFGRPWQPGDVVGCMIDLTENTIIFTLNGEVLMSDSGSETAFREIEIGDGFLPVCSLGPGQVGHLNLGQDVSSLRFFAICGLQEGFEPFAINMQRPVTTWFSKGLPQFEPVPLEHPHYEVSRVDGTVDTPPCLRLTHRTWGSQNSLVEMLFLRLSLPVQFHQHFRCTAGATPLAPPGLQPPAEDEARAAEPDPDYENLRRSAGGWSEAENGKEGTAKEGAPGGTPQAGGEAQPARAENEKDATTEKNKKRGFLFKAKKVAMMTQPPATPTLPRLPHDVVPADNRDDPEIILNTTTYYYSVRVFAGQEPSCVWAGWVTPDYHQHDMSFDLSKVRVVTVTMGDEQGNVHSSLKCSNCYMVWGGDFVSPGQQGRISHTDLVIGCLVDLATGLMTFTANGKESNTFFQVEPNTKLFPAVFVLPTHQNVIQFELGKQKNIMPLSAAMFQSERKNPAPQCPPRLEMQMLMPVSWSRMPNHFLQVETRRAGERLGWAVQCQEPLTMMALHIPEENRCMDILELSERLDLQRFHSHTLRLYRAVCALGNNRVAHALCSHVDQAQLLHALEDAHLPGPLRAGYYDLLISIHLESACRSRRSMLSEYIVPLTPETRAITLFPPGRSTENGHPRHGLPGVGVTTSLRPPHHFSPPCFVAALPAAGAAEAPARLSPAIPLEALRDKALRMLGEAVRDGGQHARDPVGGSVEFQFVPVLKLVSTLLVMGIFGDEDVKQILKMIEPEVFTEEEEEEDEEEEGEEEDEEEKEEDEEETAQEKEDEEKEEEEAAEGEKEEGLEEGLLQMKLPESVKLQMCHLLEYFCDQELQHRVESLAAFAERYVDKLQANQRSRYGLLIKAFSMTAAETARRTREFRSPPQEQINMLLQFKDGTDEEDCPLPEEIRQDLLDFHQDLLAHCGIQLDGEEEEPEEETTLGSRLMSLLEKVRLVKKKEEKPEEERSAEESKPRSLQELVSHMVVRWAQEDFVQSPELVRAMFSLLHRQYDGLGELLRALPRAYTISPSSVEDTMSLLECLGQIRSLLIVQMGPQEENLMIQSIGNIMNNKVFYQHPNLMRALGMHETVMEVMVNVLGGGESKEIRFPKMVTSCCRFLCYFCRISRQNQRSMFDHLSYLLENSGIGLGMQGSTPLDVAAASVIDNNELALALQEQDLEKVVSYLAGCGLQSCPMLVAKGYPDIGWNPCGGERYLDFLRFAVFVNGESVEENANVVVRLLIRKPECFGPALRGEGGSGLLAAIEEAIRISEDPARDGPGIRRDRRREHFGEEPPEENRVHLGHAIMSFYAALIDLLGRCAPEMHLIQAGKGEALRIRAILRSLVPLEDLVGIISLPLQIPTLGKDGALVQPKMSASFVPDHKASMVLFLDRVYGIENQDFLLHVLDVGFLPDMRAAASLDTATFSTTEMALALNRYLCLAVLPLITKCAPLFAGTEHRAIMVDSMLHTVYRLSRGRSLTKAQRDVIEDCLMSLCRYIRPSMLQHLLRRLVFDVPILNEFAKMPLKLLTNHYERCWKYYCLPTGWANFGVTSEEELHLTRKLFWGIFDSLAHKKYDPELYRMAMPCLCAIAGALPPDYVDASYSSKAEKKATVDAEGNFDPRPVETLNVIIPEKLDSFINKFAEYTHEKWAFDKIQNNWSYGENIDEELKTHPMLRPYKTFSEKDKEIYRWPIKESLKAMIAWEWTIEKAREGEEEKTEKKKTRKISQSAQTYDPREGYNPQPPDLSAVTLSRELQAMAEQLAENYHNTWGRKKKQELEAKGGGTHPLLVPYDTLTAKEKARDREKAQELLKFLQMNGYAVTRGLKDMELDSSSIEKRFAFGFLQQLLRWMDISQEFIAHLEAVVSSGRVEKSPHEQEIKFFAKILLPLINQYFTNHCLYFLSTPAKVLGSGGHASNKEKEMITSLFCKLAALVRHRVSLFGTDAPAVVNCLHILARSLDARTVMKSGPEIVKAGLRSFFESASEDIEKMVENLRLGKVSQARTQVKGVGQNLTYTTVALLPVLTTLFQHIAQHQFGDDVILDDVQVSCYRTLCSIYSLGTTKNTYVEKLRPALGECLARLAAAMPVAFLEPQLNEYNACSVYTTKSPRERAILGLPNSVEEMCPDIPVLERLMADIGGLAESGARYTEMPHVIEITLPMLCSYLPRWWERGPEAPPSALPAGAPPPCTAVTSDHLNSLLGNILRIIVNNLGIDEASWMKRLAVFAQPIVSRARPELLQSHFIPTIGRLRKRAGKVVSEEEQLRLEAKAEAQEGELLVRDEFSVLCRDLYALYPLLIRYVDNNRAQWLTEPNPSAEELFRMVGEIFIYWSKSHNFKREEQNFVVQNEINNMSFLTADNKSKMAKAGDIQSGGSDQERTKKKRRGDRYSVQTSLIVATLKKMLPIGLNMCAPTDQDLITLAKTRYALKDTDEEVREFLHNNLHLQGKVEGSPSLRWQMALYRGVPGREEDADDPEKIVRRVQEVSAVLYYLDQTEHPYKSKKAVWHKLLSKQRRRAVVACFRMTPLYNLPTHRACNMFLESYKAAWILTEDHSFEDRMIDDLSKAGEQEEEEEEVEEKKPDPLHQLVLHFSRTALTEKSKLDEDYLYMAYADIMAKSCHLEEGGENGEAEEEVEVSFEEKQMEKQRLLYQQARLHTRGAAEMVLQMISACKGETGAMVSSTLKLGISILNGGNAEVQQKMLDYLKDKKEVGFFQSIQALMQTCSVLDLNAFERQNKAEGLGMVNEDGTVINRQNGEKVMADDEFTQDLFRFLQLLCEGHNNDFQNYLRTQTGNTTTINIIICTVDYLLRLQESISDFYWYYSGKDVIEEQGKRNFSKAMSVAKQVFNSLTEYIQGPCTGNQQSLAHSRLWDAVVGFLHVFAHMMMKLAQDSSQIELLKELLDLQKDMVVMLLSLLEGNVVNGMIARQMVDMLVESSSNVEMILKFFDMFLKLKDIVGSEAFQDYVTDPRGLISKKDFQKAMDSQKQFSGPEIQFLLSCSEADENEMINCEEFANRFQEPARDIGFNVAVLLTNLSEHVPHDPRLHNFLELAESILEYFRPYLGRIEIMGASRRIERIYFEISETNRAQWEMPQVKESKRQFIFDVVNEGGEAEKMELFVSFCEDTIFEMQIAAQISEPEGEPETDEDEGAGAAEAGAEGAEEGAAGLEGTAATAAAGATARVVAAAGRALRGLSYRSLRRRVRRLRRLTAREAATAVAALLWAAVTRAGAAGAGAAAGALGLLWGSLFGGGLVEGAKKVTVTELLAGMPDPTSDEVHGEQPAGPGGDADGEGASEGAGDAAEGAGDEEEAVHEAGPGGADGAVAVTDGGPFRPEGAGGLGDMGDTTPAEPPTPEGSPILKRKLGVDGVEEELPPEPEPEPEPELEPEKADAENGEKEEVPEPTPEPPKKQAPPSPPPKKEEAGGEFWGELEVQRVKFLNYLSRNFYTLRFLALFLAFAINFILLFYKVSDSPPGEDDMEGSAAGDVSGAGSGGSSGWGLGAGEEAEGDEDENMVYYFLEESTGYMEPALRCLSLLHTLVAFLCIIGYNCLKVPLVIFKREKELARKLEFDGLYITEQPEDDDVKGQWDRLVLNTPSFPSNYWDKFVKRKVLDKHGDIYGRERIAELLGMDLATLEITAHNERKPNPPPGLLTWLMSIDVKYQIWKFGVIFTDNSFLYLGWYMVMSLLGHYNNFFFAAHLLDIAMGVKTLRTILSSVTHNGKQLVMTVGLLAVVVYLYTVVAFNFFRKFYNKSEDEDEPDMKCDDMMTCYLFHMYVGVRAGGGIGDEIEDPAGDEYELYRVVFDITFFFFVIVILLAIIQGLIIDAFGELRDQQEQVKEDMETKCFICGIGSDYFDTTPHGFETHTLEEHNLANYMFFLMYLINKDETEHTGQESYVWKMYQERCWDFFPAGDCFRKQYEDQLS

Assays:
[1] = biological target: coiled-coil domain-containing protein 78 (CCDC78), wild type, of healthy control muscle (human (endogenous in muscle tissue)) (UniProt A2IDD5); test: co-IP; muscle tissue lysate (IP Lysis/Wash Buffer) precipitated with anti-CCDC78 (AV53233) cross-linked with DSS to magnetic beads (Pierce Crosslink Magnetic IP/Co-IP kit); precipitate immunoblotted; nonspecific IgG as negative control
[2] = biological target: coiled-coil domain-containing protein 78 (CCDC78), wild type, of healthy control muscle (human (endogenous in muscle tissue)) (UniProt A2IDD5); test: co-IP; muscle tissue lysate precipitated with anti-CCDC78 cross-linked to magnetic beads; precipitate on SDS-PAGE, bands seen by Coomassie blue staining

| binding [1] | binding [2] | Substance |
| --- | --- | --- |
| binds |  | sarco-endoplasmic reticulum calcium ATPase1 (from UniProt O14983 1-1001) |
| binds |  | calsequestrin1 (from UniProt P31415 35-396) |

Continued, substance first:

| Substance | binding [1] | binding [2] |
| --- | --- | --- |
| alpha-actinin-2 (ACTN2) (from UniProt P35609 1-894) | binds |  |
| myosin-1 (MYH1) (from UniProt P12882 1-1939) | binds |  |
| RyR1 (from UniProt P21817 1-5038) | no binding | no binding |
